The supplement of paper PMC4967469
By IC50 is meant the dose at which the fit gives 50% viability; a limit (>, <) means that the fit lies beyond the doses tested. AUC is the area under the same curve over the 256-fold range up to the top dose, as a fraction; the more sensitive the line, the further below 1. A top dose marked as inferred was calculated from the reported fits.

Compound: CCCCCCCCCCCC1=C(O)C(=O)C=C(O)C1=O [Embelin]
Assay: Viability of human cancer cell lines after 72 h of drug (GDSC screen)
Conditions: top dose 32 µM; top dose inferred
Protocol: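 Human cancer cell lines in 384-well plates, medium with 10% serum, drug for 72 h over a 256-fold dose range (nine 2-fold or five 4-fold steps up to the top dose). Adherent lines were fixed and stained with the nucleic acid dye Syto60, suspension lines read with resazurin; signal relative to control wells, capped at 0 and 100%. One two-parameter sigmoid per drug and line, fitted in a mixed model over all curves with the slope shared within a line.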

Cell Line: TGBC24TKB (biliary tract, adherent)
- AUC: 0.865
- IC50: 25.3 µM

Cell Line: HuP-T4 (pancreas, adherent)
- AUC: 0.692
- IC50: 7.19 µM

Cell Line: Hs633T (fibrosarcoma, adherent)
- AUC: 0.638
- IC50: 4.44 µM

Cell Line: EPLC-272H (lung squamous cell carcinoma, adherent)
- AUC: 0.877
- IC50: > 32 µM

Cell Line: GCIY (stomach, adherent)
- AUC: 0.725
- IC50: 9.56 µM

Cell Line: SNG-M (endometrium, adherent)
- AUC: 0.627
- IC50: 4.44 µM

Cell Line: NCI-H1563 (lung adenocarcinoma, adherent)
- AUC: 0.797
- IC50: 18.5 µM

Cell Line: NCI-H1869 (lung squamous cell carcinoma, adherent)
- AUC: 0.875
- IC50: > 32 µM

Cell Line: BICR78 (head and neck, adherent)
- AUC: 0.845
- IC50: 28.8 µM

Cell Line: NCI-H69 (small cell lung carcinoma, suspension)
- AUC: 0.908
- IC50: > 32 µM

Cell Line: BCPAP (thyroid, adherent)
- AUC: 0.78
- IC50: 11.9 µM

Cell Line: SK-LU-1 (lung adenocarcinoma, adherent)
- AUC: 0.705
- IC50: 8.94 µM

Cell Line: HLE (liver, adherent)
- AUC: 0.693
- IC50: 6.71 µM

Cell Line: PANC-04-03 (pancreas, adherent)
- AUC: 0.772
- IC50: 20.9 µM

Cell Line: HA7-RCC (kidney, adherent)
- AUC: 0.824
- IC50: 21.7 µM

Cell Line: OS-RC-2 (kidney, adherent)
- AUC: 0.714
- IC50: 10.7 µM

Cell Line: EN (endometrium, adherent)
- AUC: 0.815
- IC50: 23.9 µM

Cell Line: OVMIU (ovary, adherent)
- AUC: 0.78
- IC50: 16.7 µM

Cell Line: NCI-H2029 (small cell lung carcinoma, adherent)
- AUC: 0.95
- IC50: > 32 µM

Cell Line: P12-ICHIKAWA (T-cell lymphoblastic leukaemia, suspension)
- AUC: 0.742
- IC50: 8.04 µM

Cell Line: IST-SL2 (small cell lung carcinoma, suspension)
- AUC: 0.93
- IC50: > 32 µM

Cell Line: HuH-7 (liver, adherent)
- AUC: 0.764
- IC50: 11.6 µM

Cell Line: UM-UC-3 (bladder, adherent)
- AUC: 0.768
- IC50: 11.3 µM

Cell Line: SNU-C1 (large intestine, suspension)
- AUC: 0.772
- IC50: 18.7 µM

Cell Line: NCI-H1304 (small cell lung carcinoma, suspension)
- AUC: 0.832
- IC50: 22.7 µM

Cell Line: TUR (B-cell lymphoma, suspension)
- AUC: 0.866
- IC50: 24.9 µM

Cell Line: GMS-10 (glioma, adherent)
- AUC: 0.791
- IC50: 14.3 µM

Cell Line: HT-144 (melanoma, adherent)
- AUC: 0.731
- IC50: 9.92 µM

Cell Line: EB2 (Burkitt lymphoma, suspension)
- AUC: 0.67
- IC50: 5.66 µM

Cell Line: HCC70 (breast, adherent)
- AUC: 0.945
- IC50: > 32 µM

Cell Line: MS751 (cervix, adherent)
- AUC: 0.888
- IC50: 31.4 µM

Cell Line: YAPC (pancreas, adherent)
- AUC: 0.951
- IC50: > 32 µM

Cell Line: RXF393 (kidney, adherent)
- AUC: 0.859
- IC50: > 32 µM

Cell Line: SNU-182 (liver, adherent)
- AUC: 0.681
- IC50: 6.59 µM

Cell Line: A253 (head and neck, adherent)
- AUC: 0.678
- IC50: 6.18 µM

Cell Line: HT-3 (cervix, adherent)
- AUC: 0.849
- IC50: 24.7 µM

Cell Line: TGBC11TKB (stomach, adherent)
- AUC: 0.911
- IC50: > 32 µM

Cell Line: HO-1-u-1 (head and neck, adherent)
- AUC: 0.748
- IC50: 9.9 µM

Cell Line: GI-1 (glioma, adherent)
- AUC: 0.618
- IC50: 4.16 µM

Cell Line: MOG-G-CCM (glioma, adherent)
- AUC: 0.77
- IC50: 14.2 µM

Cell Line: Hep 3B2_1-7 (liver, adherent)
- AUC: 0.723
- IC50: 8.6 µM

Cell Line: KYSE-70 (oesophagus, adherent)
- AUC: 0.801
- IC50: 17.4 µM

Cell Line: NCI-H1688 (small cell lung carcinoma, adherent)
- AUC: 0.876
- IC50: > 32 µM

Cell Line: VMRC-RCW (kidney, adherent)
- AUC: 0.686
- IC50: 6.36 µM

Cell Line: ALL-PO (lymphoblastic leukaemia, suspension)
- AUC: 0.55
- IC50: 2.77 µM

Cell Line: SNU-475 (liver, adherent)
- AUC: 0.965
- IC50: > 32 µM

Cell Line: L-363 (myeloma, suspension)
- AUC: 0.844
- IC50: 18.4 µM

Cell Line: Capan-2 (pancreas, adherent)
- AUC: 0.831
- IC50: 26.4 µM

Cell Line: LU-65 (large cell lung carcinoma, suspension)
- AUC: 0.907
- IC50: > 32 µM

Cell Line: TCCSUP (bladder, adherent)
- AUC: 0.743
- IC50: 11.1 µM

Cell Line: GI-ME-N (neuroblastoma, adherent)
- AUC: 0.903
- IC50: > 32 µM

Cell Line: Caov-4 (ovary, adherent)
- AUC: 0.846
- IC50: > 32 µM

Cell Line: SN12C (kidney, adherent)
- AUC: 0.857
- IC50: 31.2 µM

Cell Line: OE33 (oesophagus, adherent)
- AUC: 0.794
- IC50: 18 µM

Cell Line: NY (osteosarcoma, adherent)
- AUC: 0.66
- IC50: 5.52 µM

Cell Line: GT3TKB (stomach, adherent)
- AUC: 0.612
- IC50: 3.91 µM

Cell Line: PCI-15A (head and neck, adherent)
- AUC: 0.721
- IC50: 8.52 µM

Cell Line: PANC-08-13 (pancreas, adherent)
- AUC: 0.944
- IC50: > 32 µM

Cell Line: AU565 (breast, adherent)
- AUC: 0.759
- IC50: 12.3 µM

Cell Line: SW684 (fibrosarcoma, adherent)
- AUC: 0.886
- IC50: > 32 µM

Cell Line: 697 (lymphoblastic leukaemia, suspension)
- AUC: 0.792
- IC50: 11.4 µM

Cell Line: NCI-H1573 (lung adenocarcinoma, adherent)
- AUC: 0.951
- IC50: > 32 µM

Cell Line: SF539 (glioma, adherent)
- AUC: 0.815
- IC50: 15.3 µM

Cell Line: SF126 (glioma, adherent)
- AUC: 0.761
- IC50: 12 µM

Cell Line: CHSA0011 (chondrosarcoma, adherent)
- AUC: 0.964
- IC50: > 32 µM

Cell Line: CESS (acute myeloid leukaemia, suspension)
- AUC: 0.62
- IC50: 4.06 µM

Cell Line: Hs-578-T (breast, adherent)
- AUC: 0.767
- IC50: 12.6 µM

Cell Line: PL4 (pancreas, adherent)
- AUC: 0.832
- IC50: 21.4 µM

Cell Line: HuCCT1 (biliary tract, adherent)
- AUC: 0.747
- IC50: 11.3 µM

Cell Line: HDQ-P1 (breast, adherent)
- AUC: 0.694
- IC50: 7.88 µM

Cell Line: CHP-212 (neuroblastoma, adherent)
- AUC: 0.604
- IC50: 3.76 µM

Cell Line: NUGC-4 (stomach, adherent)
- AUC: 0.832
- IC50: 20.5 µM

Cell Line: HuP-T3 (pancreas, adherent)
- AUC: 0.948
- IC50: > 32 µM

Cell Line: TALL-1 (T-cell lymphoblastic leukaemia, suspension)
- AUC: 0.927
- IC50: > 32 µM

Cell Line: NB6 (neuroblastoma, adherent)
- AUC: 0.758
- IC50: 13.4 µM

Cell Line: Daudi (Burkitt lymphoma, suspension)
- AUC: 0.665
- IC50: 5.39 µM

Cell Line: 647-V (bladder, adherent)
- AUC: 0.795
- IC50: 14.9 µM
